# Source: ChEMBL document CHEMBL1157539, “Thousands of chemical starting points for antimalarial lead identification” (Nature, 2010)
# The full ranking holds about 13,000 compounds; the median of “IFI” is about 4, and the highest 2% start at about 17. The list shows a part of the results.
# Experiment: GSK_TCMDC: Inhibition Frequency Index (IFI). The number of non-kinase HTS assays where a compound showed > 50 % inhibition, expressed as a percentage of the number of such assays in which the compound was tested (-0 is zero)
# Format: functional
row,Compound,IFI [%]
1,Cc1ccc(N2C(N)=NC(N)=NC2(C)C)cc1Cl,1.46
2,Clc1ccc2c(NN=Cc3ccccc3)ccnc2c1,3.68
3,COc1ccc(Cc2c(C)nc3nc(N)nc(N)c3c2C)cc1OC,2.16
4,CCCCCCC(N)c1ccc(OCCCOc2ccc(C(N)CCCCCC)cc2)cc1 (stereo not given),24.5
5,O=C(C=Cc1ccc(Cl)c(Cl)c1)NCCCCCN1CCCC(CCCNS(=O)(=O)c2cccc3cccnc23)C1 (stereo not given),5.8
6,CCOc1cc(C)ccc1N1CCN(CCN2CCC(NC(=O)c3ccc(-c4ccc(C#N)cc4)cc3)CC2)CC1,3.67
7,O=C(/C=C/c1ccc(Cl)c(Cl)c1)N1CCC(CCN2CCC(c3nc4cc(O)ccc4[nH]3)CC2)CC1,4.32
8,CCN(CC)CCN(Cc1ccc(-c2ccc(C(F)(F)F)cc2)cc1)C(=O)Cn1cc(Cc2cnn(C)c2)c(=O)nc1/C=C/c1ccc(F)cc1,4.35
9,C[C@H]1CN(Cc2cccc(-c3cc(CNC(=O)c4cccc(CC5CCN(C)CC5)c4)ccc3F)c2)CCN1C,5.79
10,CCCC[C@H](NC(=O)OC(C)(C)C)C(=O)Nc1ccc(Cc2ccc(NC(=O)[C@H](CCCC)NC(=O)OC(C)(C)C)cc2)cc1,0.75
11,COc1ccc2[nH]cc(C3CCN(CCCCCNC(=O)c4ccc(-c5ccccc5)cc4)CC3)c2c1,8.4
12,CCCc1cc(Cc2cnc(N)nc2N)cc(CCC)c1OC,3.85
13,CN1CCN(Cc2ccc(-c3ccc4c(Nc5cc(O)c(F)cc5Cl)ccnc4c3)o2)CC1,6.57
14,CN(C)C(S)=NN=Cc1cccc(O)c1O,7.25
15,CC1CCN(CCCNc2ccc(C(=O)Nc3ccc(C(F)(F)F)cc3)cc2[N+](=O)[O-])CC1,5.88
16,CCc1cn2c3c(cc(C(=O)N[C@@H](Cc4ccccc4)[C@H](O)CNC(C)(C)CCCC(C)C)cc13)N(C)S(=O)(=O)C2,15.7
17,FC(F)c1nc2ccccc2n1-c1nc(N2CCOCC2)nc(N2CCOCC2)n1,0
18,CCCNCc1ccc(-c2ccc(CN(CCOC)C(=O)CCc3ccc(OC)cc3)cc2)nc1,1.52
19,CC(=O)Nc1sc(C)c(C)c1CN1CCc2ccccc2C1,2.52
20,Oc1ccc(C2CNCCc3c2cc(O)c(OCc2ccccc2)c3Cl)cc1 (stereo not given),13.3
21,N#Cc1ccc(-c2ccc(C(=O)Nc3ccc4c(c3)CCN(C3CCC3)CC4)nc2)cc1,4.62
22,COc1ccc(NC(=O)c2cc(-c3ccc(NC(C)=O)cc3)cnc2N)cc1,1.41
23,Nc1ncc(-c2ccc(S(=O)(=O)Nc3ccc(C(=O)N[C@@H](CCC(=O)O)C(=O)O)cc3)cc2)c(=O)[nH]1,0.85
24,CCN(CC)CCNc1ccnc2[nH]c3ccc(Cl)cc3c12,7.46
25,COc1ccc(CN(C)CCOc2ccc(NC(=O)c3cccc4c(=O)c5cc(SC)ccc5[nH]c34)cc2)cc1OC,10.3
